Assay results: publication PMC5577129
No constants are given. Whether binding was seen depends on the method and setting. Binding seen in cells or lysates may run through a third protein. Some binding calls cover weakened binding; strength is not graded here. Sequences can lack the tags named with a protein.

Experiments:
Assay in all cases: split reporter; BiFC, pSPYNE-35S and pSPYCE-35S, onion epidermal cells, gene gun; confocal microscopy 16–24 h after transformation
[1] = target: T1, AtPRD3 (BiFC fusion) (Arabidopsis thaliana) (UniProt Q0WWX5)
T1 sequence: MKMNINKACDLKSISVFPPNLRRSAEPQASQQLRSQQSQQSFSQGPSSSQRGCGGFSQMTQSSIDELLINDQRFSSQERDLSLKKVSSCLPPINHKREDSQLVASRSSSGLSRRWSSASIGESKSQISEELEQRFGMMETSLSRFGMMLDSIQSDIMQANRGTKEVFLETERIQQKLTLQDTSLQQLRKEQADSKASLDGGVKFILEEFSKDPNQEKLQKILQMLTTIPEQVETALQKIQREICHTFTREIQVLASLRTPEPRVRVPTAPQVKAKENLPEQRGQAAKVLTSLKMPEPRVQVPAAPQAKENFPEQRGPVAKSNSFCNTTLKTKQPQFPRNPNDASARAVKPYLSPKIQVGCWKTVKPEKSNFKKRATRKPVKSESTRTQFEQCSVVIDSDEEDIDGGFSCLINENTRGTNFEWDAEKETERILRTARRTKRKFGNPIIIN

[2] = target: T2, AtSPO11-1 (BiFC fusion) (Arabidopsis thaliana) (UniProt Q9M4A2)
T2 sequence: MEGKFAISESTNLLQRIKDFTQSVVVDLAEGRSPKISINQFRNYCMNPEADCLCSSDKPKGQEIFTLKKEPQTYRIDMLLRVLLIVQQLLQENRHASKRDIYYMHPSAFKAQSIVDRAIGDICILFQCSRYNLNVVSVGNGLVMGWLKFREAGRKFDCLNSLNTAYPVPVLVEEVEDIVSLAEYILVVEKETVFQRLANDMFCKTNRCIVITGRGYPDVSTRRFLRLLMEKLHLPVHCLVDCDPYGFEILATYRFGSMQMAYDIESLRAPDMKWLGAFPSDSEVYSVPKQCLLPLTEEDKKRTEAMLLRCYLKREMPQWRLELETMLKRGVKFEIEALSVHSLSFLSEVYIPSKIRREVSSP

[3] = target: T3, AtSPO11-2 (BiFC fusion) (Arabidopsis thaliana) (UniProt Q9M4A1)
T3 sequence: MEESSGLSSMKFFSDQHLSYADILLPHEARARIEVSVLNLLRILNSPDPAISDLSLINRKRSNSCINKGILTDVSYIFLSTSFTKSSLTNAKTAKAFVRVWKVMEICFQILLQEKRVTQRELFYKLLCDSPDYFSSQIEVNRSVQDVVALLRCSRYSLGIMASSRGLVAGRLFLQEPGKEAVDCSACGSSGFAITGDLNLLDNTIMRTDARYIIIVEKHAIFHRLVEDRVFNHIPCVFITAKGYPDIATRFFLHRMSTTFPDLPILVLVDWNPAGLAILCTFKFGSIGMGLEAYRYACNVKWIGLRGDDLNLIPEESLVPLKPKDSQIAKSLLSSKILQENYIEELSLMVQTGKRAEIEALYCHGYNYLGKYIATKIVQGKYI

[4] = target: T4, AtDFO (BiFC fusion) (Arabidopsis thaliana) (UniProt Q8RX33)
T4 sequence: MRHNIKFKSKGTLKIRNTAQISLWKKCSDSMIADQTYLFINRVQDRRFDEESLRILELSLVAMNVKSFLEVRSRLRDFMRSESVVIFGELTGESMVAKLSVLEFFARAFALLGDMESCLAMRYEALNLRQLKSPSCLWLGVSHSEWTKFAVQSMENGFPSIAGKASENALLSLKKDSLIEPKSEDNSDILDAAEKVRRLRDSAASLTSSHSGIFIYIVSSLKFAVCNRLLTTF

Measured: binding

B1: AtPRD1-A (1–388 aa) (BiFC fusion) (domain or fragment, UniProt O23277 1-388)
chain: MFFQHSQLQNSDHLLHESMADSNHQSLSPPCANGHRSTISLRDDQGGTFCLICFSNLVSDPRIPTVHVSYALHQLSIAISEPIFLRTLLSSHIHFLVSPLVHALSSIDDAPIAIQIMDMISLLCSVEESSIGEDFVERISDQLSSGALGWSRRQLHMLHCFGVLMSCENININSHIRDKEALVCQLVEGLQLPSEEIRGEILFALYKFSALQFTEQNVDGIEVLSLLCPKLLCLSLEALAKTQRDDVRLNCVALLTILAQQGLLANSHSNSASSMSLDEVDDDPMQTAENVAARPCLNVLFAEAIKGPLLSTDSEVQIKTLDLIFHYISQESTPSKQIQVMVEENVADYIFEILRLSECKDQVVNSCLRVLDLFSLAEHSFRKRLVIG
binds: all assays above
